Reference: publication PMC6919601, “Identification of Plasmodium dipeptidyl aminopeptidase allosteric inhibitors by high throughput screening” (PLoS ONE, 2019)
About 230 (0.21%) of roughly 110,000 compounds showed an effect of 50% or more. This is one part of the list.

Target: DPAP1 (Plasmodium falciparum, UniProt Q8IIJ9)
Experiment: primary screen, percent inhibition; read by cleavage of a fluorogenic dipeptide substrate; higher = more effect of the substance
Parameters: species or system P. falciparum D10 trophozoite lysates; single well
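Further: 30 min substrate incubation versus DMSO and 10 µM JCP410 controls.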

DPAP1, sequence (Q8IIJ9 whole entry, looked up): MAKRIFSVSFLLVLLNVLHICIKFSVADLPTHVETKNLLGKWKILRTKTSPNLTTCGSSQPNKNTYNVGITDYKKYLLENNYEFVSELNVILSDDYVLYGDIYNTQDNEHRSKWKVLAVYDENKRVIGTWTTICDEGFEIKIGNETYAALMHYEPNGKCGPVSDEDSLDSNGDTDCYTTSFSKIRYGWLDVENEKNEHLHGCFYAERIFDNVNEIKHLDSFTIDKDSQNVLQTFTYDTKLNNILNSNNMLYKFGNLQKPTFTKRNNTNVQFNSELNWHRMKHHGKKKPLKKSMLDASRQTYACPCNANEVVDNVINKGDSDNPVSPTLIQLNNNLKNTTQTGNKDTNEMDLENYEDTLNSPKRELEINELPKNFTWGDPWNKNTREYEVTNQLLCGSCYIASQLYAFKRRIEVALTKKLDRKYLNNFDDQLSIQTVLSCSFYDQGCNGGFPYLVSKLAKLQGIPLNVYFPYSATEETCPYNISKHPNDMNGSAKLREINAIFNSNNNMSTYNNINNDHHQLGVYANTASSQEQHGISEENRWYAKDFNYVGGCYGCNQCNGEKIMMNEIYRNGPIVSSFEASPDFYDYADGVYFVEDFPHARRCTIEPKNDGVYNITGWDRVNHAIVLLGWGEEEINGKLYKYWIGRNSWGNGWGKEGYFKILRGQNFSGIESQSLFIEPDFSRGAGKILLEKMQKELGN

Row | SMILES | % Inhibition @ 10 uM [%]
1 | O=C(C(c1ccccc1)c1ccccc1)N1CCN(C/C=C/c2ccccc2)CC1 | -0.261
2 | CC(C)C[C@H](CS(=O)(=O)N[C@@H](CCc1ccccc1)C(=O)C[N+](=O)[O-])NC(=O)OCc1ccccc1 | 13.8
3 | CC(C)(C)c1ccc(OCCOc2ccccc2C=C2C(=O)NC(=O)NC2=O)cc1 | -0.142
4 | COCCNC(=O)Cn1nc(C)c2c(C)n(-c3ccccc3)nc2c1=O | 0.756
5 | CC1CCCC(NC(=O)C2CCN(S(=O)(=O)N3CCCCCC3)CC2)C1C (stereo not shown) | -2.26
6 | Cc1noc2ncnc(NCCCN3CCOCC3)c12 | 0.708
7 | CN(CCNC(=O)Cn1ncc2c3ccccc3n(Cc3ccccc3)c2c1=O)C1CCCCC1 | 12
8 | CCCOc1ccccc1C(=O)Nc1cc(-c2ccc(C)cc2)no1 | -6.98
9 | CCc1ccc2nc(N(CCN(C)C)C(=O)C3COc4ccccc4O3)sc2c1 (stereo not shown) | -8.56
10 | CC(C)(C)C1CCc2c(sc(NC(=O)c3ccccc3)c2C(N)=O)C1 (stereo not shown) | -5.46
11 | O=C(c1cc2c(=O)oc3ccccc3c2s1)N1CCN(Cc2ccc3c(c2)OCO3)CC1 | -1.62
12 | O=C1NC(=S)N/C1=C/c1ccccc1Cl | 2.65
13 | Cc1ccc(-n2ncc3c(O)nc(SCC(=O)NCc4ccco4)nc32)cc1C | -3.35
14 | Cc1cc2nc3s/c(=C\c4ccc5c(c4)n(C)c(=O)n5C)c(=O)n3c2cc1C | -1.66
15 | CCOC(=O)c1cc2c(=O)n3ccccc3nc2n(C2CCCCC2)/c1=N\C(=O)/C=C/c1ccccc1 | -5.57
16 | CCCC(=O)c1cc2cc(Cl)ccc2oc1=O | 9.08
17 | O=C(CCN1C(=O)c2ccccc2C1=O)NCc1ccco1 | 15.6
18 | O=C(COCc1cc(-c2cccs2)on1)NC1CCCc2ccccc21 (stereo not shown) | -0.234
19 | COc1cc(Br)cc(/C=C2/NC(=O)N(Cc3ccc(Cl)cc3)C2=O)c1OC | 5.37
20 | CC1=C(C(=O)Nc2ccccc2)C(c2cccs2)n2c(s/c(=C/c3cnn(C)c3)c2=O)=N1 (stereo not shown) | 0.35
21 | CC1(Cc2nc3ccccc3[nH]2)OCCO1 | -3.48
22 | COCCNC(=O)c1cc(-c2ccc(OC)cc2)on1 | 4.5
23 | CCOC(=O)N1CCN(C(=O)c2ccc(CN(c3ccccc3)S(C)(=O)=O)cc2)CC1 | -0.0925
24 | O=C(CCc1nc(-c2ccc(Cl)cc2)no1)N1CCCC1 | 0.366
25 | CC(C)(C)CC(=O)O/N=C(\N)c1cccnc1 | 3.34

Row | SMILES | % Inhibition @ 10 uM [%]
26 | CCCOc1cccc(C2c3c(-c4cc(C)ccc4O)n[nH]c3C(=O)N2CCO)c1 (stereo not shown) | -1.15
27 | CS(=O)(=O)N(CC(=O)NC1CCCC1)c1ccc(Br)cc1 | 3.32
28 | NCCc1csc2c1CCCC2 | -8.91
29 | CSC1=C(C#N)C(c2ccc(C(C)C)cc2)CC(=O)N1 (stereo not shown) | 0.101
30 | O=C(NCCCN1CCN(Cc2ccccc2)CC1)C1CCN(c2nnc(-n3cccc3)s2)CC1 | 1.15
31 | CCCCNc1c(C)c(O)c(CC(=O)Nc2ccccc2)c2cc(OC)c(OC)cc12 | 12.1
32 | COc1cc(/C=c2/sc3nc4cc(C)c(C)cc4n3c2=O)ccc1O | 7.62
33 | CC(C)Sc1ncc(Cl)c(C(=O)Nc2sc3c(c2C(N)=O)CCCC3)n1 | 0.758
34 | O=C(CN1CCN(Cc2ccccc2Cl)C1=O)N1CCOCC1 | -1.83
35 | Oc1sc2ccccc2c2ncnc1-2 | 2.05
36 | C=CCn1c(SCC(=O)NCC2CCCO2)nc2sc3c(c2c1=O)CCC(C)C3 (stereo not shown) | -4.61
37 | O=C1CCCCCC1CN1CCCCC1 (stereo not shown) | 1.12
38 | CC1(C)CC(C)(c2ccc(O)cc2O)Oc2cc(O)ccc21 (stereo not shown) | -0.216
39 | COC(=O)C1=C(C)N(C)C(C)=C(C(=O)OC)C1c1ccncc1 | 6.18
40 | COc1cccc(C(=O)N(Cc2ccccc2)c2ccccn2)c1 | 0.316
41 | CCN(C(=O)c1cc2c(=O)n3ccccc3nc2n1C)c1cccc(C)c1 | -5.13
42 | COc1ccc(Cn2c(C(=O)O)c(CNCc3cccc(C)c3)c3ccc(OC)cc32)cc1 | 5.68
43 | CCn1c(/C=C/c2c(C)n(C)c3ccc(OC)cc23)nc2ccccc2c1=O | 8.47
44 | Cc1cccn2c(=O)c3cc(C(=O)NCCc4ccccc4)c(=N)n(CCOCCO)c3nc12 | 1.97
45 | O=S(=O)(NC1CCCc2ccccc21)c1ccc(-n2cccn2)cc1 (stereo not shown) | -0.231
46 | Cn1c(=O)c2c(n(C)c1=O)n(CC(=O)NC(C)(C)C)c(=O)n2C | 1
47 | CCC(C)NC(=O)Cn1cc(C=O)c2ccccc21 (stereo not shown) | 2.35
48 | CCOc1ccc(-c2nc3s/c(=C\C=C\c4ccccc4OC)c(=O)n3n2)cc1 | -3.29
49 | Cc1nc(C)c(-c2ccc(SCC(=O)NCc3ccc(Cl)cc3)nn2)s1 | -7.14
